Results: the supplement of paper PMC11417369
This is one part of the list.

These sequences were tested on PfSIP2 AP2 domain 1 (GST-tagged) (assay: gcPBM binding intensity (ln(normalized median fluorescence intensity)); higher = stronger DNA binding).
Summary of the method: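 Alexa488 anti-GST antibody, scanned at 488 nm, detected GST-tagged P. falciparum DNA-binding domains that had been expressed in E. coli and incubated for 1 h on an Agilent 4 × 180k array. The array carried primer-extended double-stranded 36-bp intergenic genomic probes and negative controls. Binding intensity is the highest Masliner-normalised natural-log median intensity across replicate spots of either orientation of each probe.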

| Sequence | gcPBM binding intensity (ln) |
| --- | --- |
| ACCAAAAAAAAAAAAAAAAAAATATACATATATATA [GTGCAC_negctrl_site582] | 7.26 |
| ACGTGATAAATAAATACATGCATAGAAAGATGCATA [TGCATGCA_site91] | 7.1 |
| TATATATATATATATTGTACTAGTGCATATATATAC [XGTACX_site7926] | 8.89 |
| TTTAAATATTTTAATACACACACGATATGTACAAAA [CACACA_site4455] | 7.11 |
| TACAATGAAAAAATAACATGCAATTATATTTCTCTT [TGCATGCA_site833] | 7.05 |
| ATAACATATTTCTTTTGTACTCAAAATAAAATTAAT [XGTACX_site2479] | 7.04 |
| AATTTTGTTGAGCACACACACATACATACATACATA [CACACA_site3154] | 7.18 |
| AAATATATTTTATTTTGTACTTATGTATAAAATATA [XGTACX_site914] | 6.85 |
| ATTCAAAAGATGTATACACACATGTGTATAATATAA [CACACA_site7197] | 7 |
| AATAATATATATATAATACACACTATTATAATCACA [CACACA_site1310] | 7.1 |
| AATAATAAAAAATATACACACATATATATATATATA [CACACA_site25] | 9.28 |
| AAAAAAAAAAAAAAATGTACATATGGTATGCATATA [XGTACX_site3225] | 7.2 |
| GCTTATAAAGGCAGAAGTACTGTATTCCTATATATA [XGTACX_site8865] | 7.06 |
| TTGGCATACGGACACACACACACACCCAGACATATA [CACACA_site4492] | 7.16 |
| TTATACAAATTCATGGGTACAAACAAACATATATCA [XGTACX_site6237] | 7.03 |
| TATACCTATAAATACACACACATATAAATAAATATA [CACACA_site6153] | 7.2 |
| AAAATATATACTCCATCACACACCAAAAAGAAAAAA [CACACA_site2542] | 7.15 |
| ATACATAAATACAAACGTACATACATACATACATAC [XGTACX_site7824] | 8.32 |
| CAGCTCTTAAGAATTACACACATATACACATATATA [CACACA_site7524] | 6.98 |
| GCAACACAAAAAATTACACACAAAAAAAATATATTA [CACACA_site916] | 7.04 |
| GAAGAAAAAAAATATACACACATACGATCATACATA [CACACA_site5227] | 6.84 |
| ATTCTACGCACGCGCACACACAACAAAAAAAAAAAA [CACACA_site3538] | 8.11 |
| GTGATGGTACAATATACACACTTAAAAAAAAAAAAT [CACACA_site5360] | 7.17 |

| Sequence | gcPBM binding intensity (ln) |
| --- | --- |
| CATGTGTGATAATGATGTACTATATTAAGCTAGTCC [XGTACX_site2690] | 6.91 |
| TATATACATATATATTGTACTTATTTTTATAATGTC [XGTACX_site3453] | 7.34 |
| TTAAGGCATCAACATAGTACAATTTTTCTATAATAA [XGTACX_site1114] | 6.94 |
| ATTTAATACAAATACACACACAAATAAATACAGATA [CACACA_site5956] | 7.05 |
| TTTATAATTCTTACAACACACAATGTACTTTTATAT [CACACA_site8340] | 7.12 |
| TTTATTTCCTTTTTGTGTACATATATATGTAATTCA [XGTACX_site1718] | 6.94 |
| ATAAAAGATATGTATATGTATATGTATATATATATA [TGCATGCA_negctrl_site214] | 9.08 |
| TATAAATAAATAGATACACACATATTTATAAATACA [CACACA_site6219] | 6.85 |
| TTACGCTGCTATATAGTGCACATAATATATGACCTG | 9.96 |
| GCTTAAGGTAAATATAAAATATAGTGTATACTTTAG [XGTACX_negctrl_site585] | 6.8 |
| ACTTAGGAAATAAAACGTACATTAAATATATACATA [XGTACX_site2990] | 7 |
| TGAATAATCAATAGTACACACATATAAATATAAATA [CACACA_site7345] | 6.98 |
| TTTTATTTATTATTATGTACACACTATATTAAAACA [XGTACX_site1265] | 7.13 |
| GTATGTATGTATGTATGTACTTATTAATCAGTAAAA [XGTACX_site3844] | 8.21 |
| TTTTTGTTAACAATGGGTACAAAAAAAAGGAAAATA [XGTACX_site7466] | 7.13 |
| CCCAAAAAATATCATAGTACTCAACATGACTACTAT [XGTACX_site7838] | 6.91 |
| AATTTTGTATAGGTATCACACATGAAATATATTATT [CACACA_site5526] | 6.98 |
| AAATAAAATAATAAAACATGCAAAAATAATGATTTA [TGCATGCA_site415] | 6.81 |
| ATAAAGATTAACAAAGTGCATTTATATATATAATCT [GTGCAC_site9407] | 7.87 |
| TATAATTATATAAATTGTACATAAAAAGTTTTTACT [XGTACX_site3621] | 6.99 |
| TATTATATCTTTTCAAGTACACATAACATACTTATT [XGTACX_site1081] | 7.37 |
| CAATATATTATATGGGTGCAAACCACATATAAATAA | 10.9 |
| TTAGGTATATATAAACGTACTCACAATATCATATAA [XGTACX_site8743] | 6.98 |

| Sequence | gcPBM binding intensity (ln) |
| --- | --- |
| TATATATACTTTTATGTACACACCTATAATATGGGT [CACACA_site1759] | 7.2 |
| AAATGTAATAATAAATGTACAAACATATATATGTAT [XGTACX_site8718] | 6.94 |
| ATAAATAAATAAAAAAGTACATTTCCACTTTTAACA [XGTACX_site81] | 6.82 |
| TGCACCCACCAACACACACACAACTAAAAAATAATG [CACACA_site2566] | 8.09 |
| AAGTTTAAAATCTTTGCACACATATAAATAAATATA [CACACA_site2554] | 7.27 |
| TTAAATGTAATATAATGTACGGATATTTACCATAAA [XGTACX_site1472] | 6.85 |
| AAGTATGTATCACAAAGTACTTAAGCATATATTTAA [XGTACX_site4121] | 6.72 |
| TTGTAATAAATAAAAGTGCATATATGGTTCCACTAT [GTGCAC_site9944] | 8.18 |
| TACAAATATGGACACACACACATATATATATATATA [CACACA_site4488] | 9.51 |
| TTATTTTTTTATTCATGTACACAAGAACATTTCATT [XGTACX_site5744] | 7.22 |
| TAAATATATTGGAGAGGTACACTTTTGGCATTGAAA [XGTACX_site8447] | 6.93 |
| GTATATATAATGTGCCGTACATTTATATATTCAATA [XGTACX_site1051] | 7 |
| GTATAATAGAAACACACACACACACCCAAAAAAAAA [CACACA_site2010] | 7.25 |
| AATAAAATGCAATACATTTTGTTATATAATGTTGTT [CACACA_negctrl_site1525] | 6.92 |
| CACAATGTAGTGTATAAATACAATAAAAGGTTGTAT [CACACA_negctrl_site700] | 6.92 |
| TAAAGTGTAAAATTCACACACATATATATATATATA [CACACA_site4883] | 9.57 |
| ATATTGTAAGTAAACACACACACATATATCTGTATA [CACACA_site4541] | 7.2 |
| ATTTTTTTTTTCTTTTTTTTTTGTTTTTCTCCTTTT [CACACA_negctrl_site1182] | 6.56 |
| ATTTTTTTTATTATTACACACATATAATAAAAAAAT [CACACA_site1802] | 7.25 |
| GTATAATTTATTGAACGTACACATATATATATGTAT [XGTACX_site1395] | 7.24 |
| TATTTCTTATTACATACACACATATACATAGATGAC [CACACA_site5729] | 7.15 |
| TCTTGTCTACCTTGTATTTAATATTTACATATATAA [TGCATGCA_negctrl_site320] | 7.45 |
| TATTTGTAAAAATTGTGTACTTAGAAAATTCCAAAA [XGTACX_site6007] | 7.26 |

| Sequence | gcPBM binding intensity (ln) |
| --- | --- |
| TATATGTTTTTATGTACACACTTTTAACCTAAGAAA [CACACA_site4769] | 7.3 |
| TTCTTGTATATATTTTGTACATATATACCATTTTAG [XGTACX_site2409] | 7.15 |
| AAATGTATAGGAATAATAATAAAAAAAAAAAAAAAT [CACACA_negctrl_site1793] | 6.83 |
| TGGAGGTCAGTTCACAGTACCCAGTAACTCTACGGA [XGTACX_site2549] | 6.5 |
| AAAAAAAATAAAATAATAAAAATTATGAATATATAT [CACACA_negctrl_site280] | 7.03 |
| ATCATTCCACTTTTCACACATATCTCTATTTCTATC [CACACA_site4723] | 7.37 |
| ATAGGTAATAATAATACACACGGTGAAATATAGATG [CACACA_site9336] | 6.93 |
| CAGTTTACTAATATTGCACACGAATATGAAAAAGAG [CACACA_site8941] | 8.13 |
| AAAAAAAATTATGAAGTGCATTAGTGAATTTGATTG | 9.16 |
| TTATCATTTGCCATTGTGCACTTATATGCTCACATT | 10.2 |
| TTTTTCACACTTCAAAAGTGTCAACCTTCTATTCTC [TGCATGCA_negctrl_site489] | 6.57 |
| TTGTCTACAAAAATGTGCTTCTAATCATACGACTTG [CACACA_negctrl_site46] | 6.71 |
| TACATATATTATTGCACACATATAAAATACCCCCAA [CACACA_site3895] | 8.23 |
| GTAAAATTTACATAGAGTACTTATATTTTTTTCTGC [XGTACX_site3414] | 6.84 |
| CACAAATATACAAATACACACAAATATACAAATACA [CACACA_site2385] | 7.04 |
| AAACTTTTTTTAAAAACACACATATAGATTTATATA [CACACA_site7842] | 7.01 |
| TTTTGTTATTTTTGTATGCACTACATATTATTATAT | 8.6 |
| TATTTTTAAACAAAACTGTATTTATTTTTTAAAATT [CACACA_negctrl_site1449] | 6.67 |
| TAGTTTTTTATATATTGTACAAATGATATATTATAT [XGTACX_site1002] | 7.1 |
| GAAATTAAAAAATTTATGCACACTTTAAAAAAAAAA [CACACA_site3769] | 7.81 |
